Laboratory results from the supplement of paper PMC8007513.
Counter-ions that a name gives are not always drawn. ± gives the standard error. Hit rate of the full screen: of about 1,300 compounds, about 130 (10%) showed an effect of 50% or more. The list shows a part of the results, in another mix than the full data.

System: Trichoderma virens ATCC 9645
Test: growth yield (OD600) with compound + IPBC relative to untreated control; higher = less growth inhibition
Conditions: compound concentration: 100 uM, IPBC concentration: 200 ng/ml
Summary of the method: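 Growth appears as means of duplicate screens, relative to the control containing neither agent. To obtain it, OD600 was read on a BioTek EL800 at 40 h and 72 h. The cultures were 100 μl aliquots in 96-well plates at 30 °C, holding Trichoderma virens ATCC 9645 spores at 15,000 spores ml^−1 in potato dextrose broth, library compounds at 100 μM final, and, in some wells, a biocide at 200 ng ml^−1.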

| SMILES | growth yield (40 h) [%] | growth yield (72 h) [%] |
| --- | --- | --- |
| NC(=O)OCCCc1ccccc1 [Phenprobamate] + CCCCNC(=O)OCC#CI [3-iodo-2-propynyl butylcarbamate (IPBC)] | 106 ± 5.6 | 104.5 ± 0.42 |
| CN1C(C(=O)Nc2ccccn2)=C(O)c2sccc2S1(=O)=O [Tenoxicam] + CCCCNC(=O)OCC#CI [3-iodo-2-propynyl butylcarbamate (IPBC)] | 83.1 ± 2.1 | 94.08 ± 0.1 |
| Cc1ncc([N+](=O)[O-])n1CC(O)CCl (stereo not drawn) [Ornidazole] + CCCCNC(=O)OCC#CI [3-iodo-2-propynyl butylcarbamate (IPBC)] | 98.16 ± 0.32 | 105 ± 1.7 |
| COc1cc2c(cc1OC)C(=O)C(CC1CCN(Cc3ccccc3)CC1)C2 (stereo not drawn) [Donepezil hydrochloride] + CCCCNC(=O)OCC#CI [3-iodo-2-propynyl butylcarbamate (IPBC)] | 85.9 ± 2.1 | 87.3 ± 2.3 |
| CCCCC(CC)CN1CN(CC(CC)CCCC)CC(C)(N)C1 (stereo not drawn) [Hexetidine] + CCCCNC(=O)OCC#CI [3-iodo-2-propynyl butylcarbamate (IPBC)] | 28.6 ± 8.6 | – |
| O=C(CCCN1CCC(O)(c2ccc(Br)cc2)CC1)c1ccc(F)cc1 [Bromperidol] + CCCCNC(=O)OCC#CI [3-iodo-2-propynyl butylcarbamate (IPBC)] | 64.3 ± 2.1 | 87.3 ± 1.5 |
| CO[C@@]1(NC(=O)Cc2cccs2)C(=O)N2C(C(=O)O)=C(COC(N)=O)CS[C@@H]21 [Cefoxitin sodium salt] + CCCCNC(=O)OCC#CI [3-iodo-2-propynyl butylcarbamate (IPBC)] | 100 ± 15 | 98.3 ± 7.2 |
| CC(=O)c1ccc2c(c1)N(CCCN1CCC(CCO)CC1)c1ccccc1S2 [Piperacetazine] + CCCCNC(=O)OCC#CI [3-iodo-2-propynyl butylcarbamate (IPBC)] | 55 | 94.8 |
| COc1cc(Cc2cnc(N)nc2N)cc(OC)c1OC [Trimethoprim] + CCCCNC(=O)OCC#CI [3-iodo-2-propynyl butylcarbamate (IPBC)] | 83.1 ± 2.7 | 91 ± 1.7 |
| COCC1=C(C(=O)OC(C)OC(=O)OC(C)C)N2C(=O)[C@@H](NC(=O)/C(=N\OC)c3csc(N)n3)[C@H]2SC1 (stereo partly drawn) [Cefpodoxime proxetil] + CCCCNC(=O)OCC#CI [3-iodo-2-propynyl butylcarbamate (IPBC)] | 121 ± 3.5 | 113.6 ± 0.94 |
| CCN(CC)CCOC(=O)C(c1ccccc1)C1CCCCC1 (stereo not drawn) [Drofenine hydrochloride] + CCCCNC(=O)OCC#CI [3-iodo-2-propynyl butylcarbamate (IPBC)] | 81.96 ± 0.64 | 93.13 ± 0.63 |
| Cn1ccnc1S [Methimazole] + CCCCNC(=O)OCC#CI [3-iodo-2-propynyl butylcarbamate (IPBC)] | 120 ± 16 | 111 ± 12 |
| CC(C)(Sc1cc(C(C)(C)C)c(O)c(C(C)(C)C)c1)Sc1cc(C(C)(C)C)c(O)c(C(C)(C)C)c1 [Probucol] + CCCCNC(=O)OCC#CI [3-iodo-2-propynyl butylcarbamate (IPBC)] | 86.6 ± 5.9 | 94.7 ± 4.1 |
| CCN1C(=O)NC(c2ccccc2)C1=O (stereo not drawn) [Ethotoin] + CCCCNC(=O)OCC#CI [3-iodo-2-propynyl butylcarbamate (IPBC)] | 85 ± 3 | 87 ± 2.1 |
| CN1CCC(=C2c3ccccc3CC(=O)c3sccc32)CC1 [Ketotifen fumarate] + CCCCNC(=O)OCC#CI [3-iodo-2-propynyl butylcarbamate (IPBC)] | 87.5 ± 11 | 95.2 ± 2.5 |
| CN1CCCC(CC2c3ccccc3Sc3ccccc32)C1 (stereo not drawn) [Metixene hydrochloride] + CCCCNC(=O)OCC#CI [3-iodo-2-propynyl butylcarbamate (IPBC)] | 48.9 ± 2.2 | – |
| COc1ccccc1N1CCN(CC(O)COc2cccc3ccccc23)CC1 (stereo not drawn) [Naftopidil dihydrochloride] + CCCCNC(=O)OCC#CI [3-iodo-2-propynyl butylcarbamate (IPBC)] | 64.81 ± 0.32 | 97.5 ± 2.7 |
| C[C@@H]1CN([C@H]2CC[C@](C#N)(c3ccc(F)cc3)CC2)CC[C@]1(C(=O)O)c1ccccc1 [Levocabastine hydrochloride] + CCCCNC(=O)OCC#CI [3-iodo-2-propynyl butylcarbamate (IPBC)] | 118 ± 11 | 111 ± 7.3 |
| CCCN(CCC)C(=O)C(CCC(=O)O)NC(=O)c1ccccc1 (stereo not drawn) [Proglumide] + CCCCNC(=O)OCC#CI [3-iodo-2-propynyl butylcarbamate (IPBC)] | 93.6 ± 5.9 | 99.4 ± 3.8 |
| COc1cc(OC)c(C(=O)CCCN2CCCC2)c(OC)c1 [Buflomedil hydrochloride] + CCCCNC(=O)OCC#CI [3-iodo-2-propynyl butylcarbamate (IPBC)] | 82.6 ± 2.9 | 88.4 ± 1.8 |
| N#CC(c1ccc(Cl)cc1)c1c(Cl)cc(-n2ncc(=O)[nH]c2=O)cc1Cl (stereo not drawn) [Diclazuril] + CCCCNC(=O)OCC#CI [3-iodo-2-propynyl butylcarbamate (IPBC)] | 61 | 93.8 ± 12 |
| CO[C@H]1C[C@H](O[C@H]2[C@H](C)[C@@H](O[C@@H]3O[C@H](C)C[C@H](N(C)C)[C@H]3OC(C)=O)[C@@H](C)C[C@@]3(CO3)C(=O)[C@H](C)[C@@H](OC(C)=O)[C@@H](C)[C@@H](C)OC(=O)[C@@H]2C)O[C@@H](C)[C@@H]1OC(C)=O [Troleandomycin] + CCCCNC(=O)OCC#CI [3-iodo-2-propynyl butylcarbamate (IPBC)] | 89.59 ± 0.32 | 92.29 ± 0.84 |
| Cc1cc(C(=O)NNCc2ccccc2)no1 [Isocarboxazid] + CCCCNC(=O)OCC#CI [3-iodo-2-propynyl butylcarbamate (IPBC)] | 102 ± 6.2 | 99.3 ± 3.2 |
| C=CCC1(CC(C)C)C(=O)NC(=O)NC1=O [Butalbital] + CCCCNC(=O)OCC#CI [3-iodo-2-propynyl butylcarbamate (IPBC)] | 85.6 ± 1.4 | 93.2 ± 0.94 |
| O=C(CCCN1CCC(n2c(=O)[nH]c3ccccc32)CC1)c1ccc(F)cc1 [Benperidol] + CCCCNC(=O)OCC#CI [3-iodo-2-propynyl butylcarbamate (IPBC)] | 97.8 ± 13 | 101 ± 8.9 |
